Target: T1, HA-Halo-MRAP2 (human, UniProt Q96G30 1-205, CA-Sulfo646 dye on the Halo tag)
T1 construct: melanocortin receptor-2 accessory protein-2 (MRAP2), human; N-terminal signal peptide from rat mGluR2 in the construct; also called melanocortin receptor-2 accessory protein-2; source: HEK293, transfected, in lysate (LMNG-CHS); not shown: HA, N-terminal, kept; Halo, N-terminal, kept
T1 sequence (looked up): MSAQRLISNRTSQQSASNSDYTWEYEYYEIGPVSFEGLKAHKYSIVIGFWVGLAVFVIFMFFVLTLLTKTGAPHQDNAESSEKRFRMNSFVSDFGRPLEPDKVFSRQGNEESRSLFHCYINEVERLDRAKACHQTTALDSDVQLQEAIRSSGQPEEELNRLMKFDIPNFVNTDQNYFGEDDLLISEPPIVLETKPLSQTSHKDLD
Assay: single-molecule pull-down (SiMPull) with photobleaching step counting; two-color: HA-Halo protein (CA-Sulfo646) and FLAG-CLIP protein (BC-DY547) co-expressed in HEK293 (300 ng Halo and 600 ng CLIP plasmid), lysed in 0.5% LMNG/0.05% CHS, captured by biotinylated anti-HA antibody, co-localized spots analysed by TIRF; also reanalysed for monomeric against oligomeric GPCR
Conditions: partners not purified

- percent of co-localized spots with 2-step bleaching for MRAP2: 24%
- stoichiometry N: 1 MRAP2 per MC4R
B1: FLAG-CLIP-MC4R (receptor, human, UniProt P32245 1-332, looked up)
chain: MVNSTHRGMHTSLHLWNRSSYRLHSNASESLGKGYSDGGCYEQLFVSPEVFVTLGVISLLENILVIVAIAKNKNLHSPMYFFICSLAVADMLVSVSNGSETIVITLLNSTDTDAQSFTVNIDNVIDSVICSSLLASICSLLSIAVDRYFTIFYALQYHNIMTVKRVGIIISCIWAACTVSGILFIIYSDSSAVIICLITMFFTMLALMASLYVHMFLMARLHIKRIAVLPGTGAIRQGANMKGAITLTILIGVFVVCWAPFFLHLIFYISCPQNPYCVCFMSHFNLYLILIMCNSIIDPLIYALRSQELRKTFKEIICCYPLGGLCDLSSRY
modifications: BC-DY547 dye on the CLIP tag
notes: melanocortin receptor-4 (MC4R), human; N-terminal signal peptide from rat mGluR2 in the construct; source: HEK293, transfected, in lysate (LMNG-CHS); not shown: CLIP, N-terminal, kept

From paper doi:10.1101/2025.09.26.678709, “MRAP2 potentiates GPCR signaling by conserved mechanisms that are disrupted by obesity-associated genetic variants” (bioRxiv, 2025)
